Experimental data as given in article PMC6212790.
Some of the results follow. At the low end of the ranking, values are background and their order means little.

Target: T1, GST-Rok (full length) (UniProt O34857)
T1 sequence: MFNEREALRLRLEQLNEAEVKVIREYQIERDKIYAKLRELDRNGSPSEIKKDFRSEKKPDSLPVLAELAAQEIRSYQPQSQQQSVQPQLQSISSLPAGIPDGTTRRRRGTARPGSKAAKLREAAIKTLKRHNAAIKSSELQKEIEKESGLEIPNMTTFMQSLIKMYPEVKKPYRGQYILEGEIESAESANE
Experiment: protein binding microarray;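 note: rank score from −0.5 (least bound) to 0.5 (best bound)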
Conditions: Rok is a gene silencer of Bacillus subtilis; high values mean tight binding; most listed sequences are background and not binding sites; double strand, one strand shown

Sequence | binding signal
ATGCTGTA | 0.193 E-score
CCCGTGAG | -0.246 E-score
CGTAGCCA | -0.253 E-score
CCCTTAGG | -0.332 E-score
AATTAAGA | 0.156 E-score
CGTCGCGC | 0.0557 E-score
CGAGAACG | -0.0349 E-score
CAACGGAA | 0.0501 E-score
CACAGACG | 0.0562 E-score
ACTTATGG | 0.102 E-score
AGGGTTGG | -0.183 E-score
AATCCATG | 0.108 E-score
ATATGACC | 0.165 E-score
GCCCGGGC | -0.292 E-score
ATGACGTG | -0.0428 E-score
CGGTCAAC | 0.0109 E-score
GTTCTTAA | 0.122 E-score
CCTACCCA | 0.0514 E-score
GTAACCGA | 0.00566 E-score
AACGCTCA | 0.000114 E-score
ATTAATAA | 0.182 E-score
TCAAGGAA | -0.162 E-score
GCGTGGCC | -0.265 E-score
GCTTAGGA | -0.0994 E-score
CAGTCCGC | -0.319 E-score

Sequence | binding signal
CTCGTTGA | 0.0441 E-score
CCGGTTCC | -0.18 E-score
ACTTTTAC | 0.224 E-score
ACTGATAA | 0.273 E-score
TCGCGCCA | -0.0522 E-score
CTAATAGC | 0.2 E-score
ATACACAA | 0.191 E-score
AGCATACG | 0.116 E-score
AAAACACC | 0.0147 E-score
ACTATACC | 0.292 E-score
ATCAGAAT | 0.133 E-score
TTACAGAA | 0.259 E-score
TATCAAGA | 0.227 E-score
CGAGTGTA | 0.104 E-score
AGACTCGC | -0.177 E-score
AAACAATC | 0.019 E-score
AATGACAG | -0.0787 E-score
ACACCTGA | 0.0581 E-score
CGGATATC | 0.209 E-score
GTTGCGTA | 0.074 E-score
ATTTGTAC | 0.329 E-score
TGACCGCA | -0.16 E-score
AAGACTTC | -0.0321 E-score
AAGCCGGC | -0.22 E-score
AGGCAGGA | -0.042 E-score

Sequence | binding signal
GCGACTAC | 0.0185 E-score
GCCGATAC | 0.0839 E-score
ATGGAAAC | 0.128 E-score
ACCTCACC | -0.0233 E-score
AGCCTAGC | -0.245 E-score
ATTTGCCC | -0.0605 E-score
CCCGCTGC | -0.321 E-score
CCTATTAG | 0.172 E-score
CACGATCG | -0.088 E-score
AAGAAGAG | -0.106 E-score
TGGTAGAA | 0.468 E-score
AGTCCCTA | -0.0971 E-score
CGACCGCA | -0.0937 E-score
CTACTAAA | 0.357 E-score
CGTCCATC | -0.274 E-score
AGGGCAAA | 0.0546 E-score
GCTAGGGA | -0.194 E-score
CCGCAAAG | -0.224 E-score
AATAGACG | -0.0243 E-score
GCGGGTGA | -0.235 E-score
CAGACTAC | 0.127 E-score
AGGAACCG | -0.143 E-score
CTTATAAA | 0.0863 E-score
GGGGCACC | -0.364 E-score
ACGGCTCG | -0.211 E-score

Sequence | binding signal
GCGAGTAA | 0.115 E-score
GGGTCATA | -0.0384 E-score
CGTCAGAA | -0.0471 E-score
TAGCCGGA | -0.0641 E-score
CAGAATGC | 0.0167 E-score
GAGACCCC | -0.406 E-score
ATACTGTA | 0.34 E-score
ATCCCCTG | -0.118 E-score
GTTGGATA | 0.0397 E-score
CCCGTACC | -0.186 E-score
AATAGGTG | 0.125 E-score
ATTGGACA | 0.0304 E-score
AAGGATGA | -0.0336 E-score
GTAAGTAC | 0.26 E-score
GTCTTTCA | -0.0505 E-score
GCCGAGAC | -0.166 E-score
AACACAAC | 0.137 E-score
GCTTTGCC | -0.246 E-score
CACACCAG | -0.0365 E-score
CTGGTTAA | -0.044 E-score
CTATCTCC | 0.0663 E-score
AAATACGG | 0.21 E-score
CCTACGCA | -0.0529 E-score
CTAGTAAC | 0.303 E-score
GATGGTAC | -0.0105 E-score

Sequence | binding signal
AACACACC | 0.034 E-score
ATCTCAAC | -0.0611 E-score
AATTGGTC | 0.0556 E-score
AGTACCCA | -0.0295 E-score
AACCTGGT | -0.115 E-score
CAGAGCCA | -0.125 E-score
CCGCCATC | -0.429 E-score
TAAGTTGA | 0.0854 E-score
ATCGACGG | -0.185 E-score
CGCAGGCC | -0.346 E-score
GAGTTCAA | -0.0299 E-score
AGCGCCGA | -0.244 E-score
CTGGTAGC | 0.13 E-score
CGTAACCC | -0.19 E-score
ACCCTTCC | -0.327 E-score
AGTGCTCA | 0.00402 E-score
ATCGCACA | -0.131 E-score
ACCACAGG | -0.127 E-score
ATTGGATC | -0.00455 E-score
CTCACGGC | -0.0922 E-score
AAAACACG | 0.154 E-score
CCCTAGAG | -0.181 E-score
CGGCGAAA | -0.0329 E-score
ATATGATG | 0.316 E-score
AAGACTGT | 0.0852 E-score

Sequence | binding signal
ACTTTCGC | 0.11 E-score
AGATCTTA | 0.215 E-score
CCACCTTA | -0.143 E-score
ATATTGAT | 0.316 E-score
GAGGCGAA | -0.0953 E-score
CGATGTTA | 0.0449 E-score
GATTGCCA | -0.0629 E-score
GATAATCA | 0.101 E-score
AGAGCATG | -0.101 E-score
GAGCCGTA | -0.0838 E-score
CTACACTC | -0.0726 E-score
GTCTTGCA | -0.0304 E-score
AGGCACAC | -0.233 E-score
GGCTGTAC | -0.102 E-score
CAGGACCC | -0.285 E-score
GGCGACAA | -0.145 E-score
GTATACAC | 0.218 E-score
CCCTGCTC | -0.27 E-score
CCGGTCTA | -0.0179 E-score
CTGAGGGA | -0.242 E-score
AACCAGAG | -0.187 E-score
AGAAAAAT | 0.138 E-score
CACTTATA | 0.329 E-score
CTCCCATA | -0.148 E-score
AGCCAGGC | -0.355 E-score

Sequence | binding signal
ATAATCCG | 0.0239 E-score
ATGGGCAG | -0.0688 E-score
AGGCAAGG | -0.428 E-score
AACGGTAT | 0.211 E-score
AATTCGAT | 0.104 E-score
CATGCCCG | -0.316 E-score
CCCTCGTA | -0.134 E-score
CGCTCCGA | -0.25 E-score
AAGAAAAG | 0.064 E-score
CTAGTCGA | 0.262 E-score
ACTTGCAG | 0.0388 E-score
ACAACTAA | 0.251 E-score
ACCCCGTA | -0.174 E-score
AGTAGAAG | 0.228 E-score
AGAGTTCG | -0.0759 E-score
GCTCAGAA | -0.124 E-score
CCGTGGGC | -0.363 E-score
ACACAGGT | -0.0293 E-score
AGGTTCGC | -0.173 E-score
TCAGTGAA | -0.2 E-score
GATTTTAC | 0.18 E-score
CTGGGTAC | -0.102 E-score
